This is an account of results in article PMC12820563.

The list shows a part of the results. The list includes weakly bound sequences.

This assay addresses T1, MBP-FoxP3dN (UniProt Q99JB6).
T1 sequence: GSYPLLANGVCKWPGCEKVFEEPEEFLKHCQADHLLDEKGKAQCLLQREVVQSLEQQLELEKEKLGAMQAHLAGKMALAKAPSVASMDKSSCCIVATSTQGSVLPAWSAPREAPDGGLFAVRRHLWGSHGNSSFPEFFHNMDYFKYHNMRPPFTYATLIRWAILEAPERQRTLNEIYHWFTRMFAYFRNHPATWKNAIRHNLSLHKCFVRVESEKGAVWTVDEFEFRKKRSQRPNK
Nature of the assay: PD-seq (MBP pull-down with sequencing). To be noted: 20 mM Tris-HCl pH 7.5, 100 mM NaCl, 1.5 mM MgCl2, 0.4 uM protein, 0.1 uM dsDNA library, 30 min, room temperature, amylose pull-down; high values mean tight binding; double strand, one strand shown.
Consider “GATGATTGTTCTCCCAGCTGATGAATTGGGGATGTCGAGTAAACAAATTTTCCTAATCTTTCTGTTCAAGCGCCATCTAC”, for which the binding signal (RPM ratio (pull-down/input)) is 0.46.
“GATGATTGTTCTCCCAGCTGATGAATTCGGAGGGTCGAGTAAACAAATTTTCCTAATCTTTCTGTTCAAGCGCCATCTAC”: the binding signal (RPM ratio (pull-down/input)) turned out to be 0.294.
Take “GATGATTGTTCTCCCAGCTGATGAATTTGGAGGTTCGAGTAAACAAATTTTCCTAATCTTTCTGTTCAAGCGCCATCTAC”: the binding signal (RPM ratio (pull-down/input)) is 0.418.
In the case of “GATGATTGTTCTCCCAGCTGATGAATTGACGTTGTCGAGTAAACAAATTTTCCTAATCTTTCTGTTCAAGCGCCATCTAC” it was 0.736.
Regarding “GATGATTGTTCTCCCAGCTGATGAATTGTTTTTATCGAGTAAACAAATTTTCCTAATCTTTCTGTTCAAGCGCCATCTAC”, the binding signal (RPM ratio (pull-down/input)) was 3.74.
The figure for “GATGATTGTTCTCCCAGCTGATGAATTTTGCTTATCGAGTAAACAAATTTTCCTAATCTTTCTGTTCAAGCGCCATCTAC” is 6.46; for “GATGATTGTTCTCCCAGCTGATGAATTTTAATGATCGAGTAAACAAATTTTCCTAATCTTTCTGTTCAAGCGCCATCTAC” it is 0.873.
In the case of “GATGATTGTTCTCCCAGCTGATGAATTATACTCTTCGAGTAAACAAATTTTCCTAATCTTTCTGTTCAAGCGCCATCTAC” it was 0.438; in that of “GATGATTGTTCTCCCAGCTGATGAATTTGTGTACTCGAGTAAACAAATTTTCCTAATCTTTCTGTTCAAGCGCCATCTAC”, 6.72.
Regarding “GATGATTGTTCTCCCAGCTGATGAATTGGCCTTCTCGAGTAAACAAATTTTCCTAATCTTTCTGTTCAAGCGCCATCTAC”, the binding signal (RPM ratio (pull-down/input)) is 0.865.
The figure for “GATGATTGTTCTCCCAGCTGATGAATTGTCCATGTCGAGTAAACAAATTTTCCTAATCTTTCTGTTCAAGCGCCATCTAC” is 0.38; for “GATGATTGTTCTCCCAGCTGATGAATTCCGTCCGTCGAGTAAACAAATTTTCCTAATCTTTCTGTTCAAGCGCCATCTAC” it is 0.369; for “GATGATTGTTCTCCCAGCTGATGAATTGCCGTTATCGAGTAAACAAATTTTCCTAATCTTTCTGTTCAAGCGCCATCTAC” it is 1.14.
The figure for “GATGATTGTTCTCCCAGCTGATGAATTGGGGGGTTCGAGTAAACAAATTTTCCTAATCTTTCTGTTCAAGCGCCATCTAC” is 0.652; for “GATGATTGTTCTCCCAGCTGATGAATTTATTCAATCGAGTAAACAAATTTTCCTAATCTTTCTGTTCAAGCGCCATCTAC” it is 0.42.
“GATGATTGTTCTCCCAGCTGATGAATTTACCCTTTCGAGTAAACAAATTTTCCTAATCTTTCTGTTCAAGCGCCATCTAC”: the binding signal (RPM ratio (pull-down/input)) turned out to be 0.404.
On to “GATGATTGTTCTCCCAGCTGATGAATTGCCATGTTCGAGTAAACAAATTTTCCTAATCTTTCTGTTCAAGCGCCATCTAC”, for which the binding signal (RPM ratio (pull-down/input)) was determined as 1.07.
In the case of “GATGATTGTTCTCCCAGCTGATGAATTTAGAACGTCGAGTAAACAAATTTTCCTAATCTTTCTGTTCAAGCGCCATCTAC” it was 0.345; in that of “GATGATTGTTCTCCCAGCTGATGAATTTTGTTTTTCGAGTAAACAAATTTTCCTAATCTTTCTGTTCAAGCGCCATCTAC”, 7.43.
In the case of “GATGATTGTTCTCCCAGCTGATGAATTGGAGTAATCGAGTAAACAAATTTTCCTAATCTTTCTGTTCAAGCGCCATCTAC” it was 0.455; in that of “GATGATTGTTCTCCCAGCTGATGAATTTTACCTTTCGAGTAAACAAATTTTCCTAATCTTTCTGTTCAAGCGCCATCTAC”, 0.319; in that of “GATGATTGTTCTCCCAGCTGATGAATTGGACGGTTCGAGTAAACAAATTTTCCTAATCTTTCTGTTCAAGCGCCATCTAC”, 0.3.
The figure for “GATGATTGTTCTCCCAGCTGATGAATTTCCCATTTCGAGTAAACAAATTTTCCTAATCTTTCTGTTCAAGCGCCATCTAC” is 0.27.
In the case of “GATGATTGTTCTCCCAGCTGATGAATTCCTTTAATCGAGTAAACAAATTTTCCTAATCTTTCTGTTCAAGCGCCATCTAC”, the binding signal (RPM ratio (pull-down/input)) worked out at 0.231.
In the case of “GATGATTGTTCTCCCAGCTGATGAATTCCACTGTTCGAGTAAACAAATTTTCCTAATCTTTCTGTTCAAGCGCCATCTAC” it was 0.479.
The figure for “GATGATTGTTCTCCCAGCTGATGAATTTTTCCGCTCGAGTAAACAAATTTTCCTAATCTTTCTGTTCAAGCGCCATCTAC” is 0.178; for “GATGATTGTTCTCCCAGCTGATGAATTGGGAAGCTCGAGTAAACAAATTTTCCTAATCTTTCTGTTCAAGCGCCATCTAC” it is 0.225; for “GATGATTGTTCTCCCAGCTGATGAATTTATAGTCTCGAGTAAACAAATTTTCCTAATCTTTCTGTTCAAGCGCCATCTAC” it is 1.87.
The figure for “GATGATTGTTCTCCCAGCTGATGAATTGGTGGTCTCGAGTAAACAAATTTTCCTAATCTTTCTGTTCAAGCGCCATCTAC” is 1.23; for “GATGATTGTTCTCCCAGCTGATGAATTTTGTTAATCGAGTAAACAAATTTTCCTAATCTTTCTGTTCAAGCGCCATCTAC” it is 2.7; for “GATGATTGTTCTCCCAGCTGATGAATTAAGTCGGTCGAGTAAACAAATTTTCCTAATCTTTCTGTTCAAGCGCCATCTAC” it is 0.303.
Turning to “GATGATTGTTCTCCCAGCTGATGAATTTATCTCCTCGAGTAAACAAATTTTCCTAATCTTTCTGTTCAAGCGCCATCTAC”, the binding signal (RPM ratio (pull-down/input)) stood at 0.631.
Consider “GATGATTGTTCTCCCAGCTGATGAATTATCAAATTCGAGTAAACAAATTTTCCTAATCTTTCTGTTCAAGCGCCATCTAC”, for which the binding signal (RPM ratio (pull-down/input)) came to 0.343.
The figure for “GATGATTGTTCTCCCAGCTGATGAATTGCTTAGGTCGAGTAAACAAATTTTCCTAATCTTTCTGTTCAAGCGCCATCTAC” is 0.744.
The figure for “GATGATTGTTCTCCCAGCTGATGAATTACGCAAATCGAGTAAACAAATTTTCCTAATCTTTCTGTTCAAGCGCCATCTAC” is 0.792; for “GATGATTGTTCTCCCAGCTGATGAATTTTATTTTTCGAGTAAACAAATTTTCCTAATCTTTCTGTTCAAGCGCCATCTAC” it is 4.17; for “GATGATTGTTCTCCCAGCTGATGAATTCGGCCAATCGAGTAAACAAATTTTCCTAATCTTTCTGTTCAAGCGCCATCTAC” it is 0.501.
The figure for “GATGATTGTTCTCCCAGCTGATGAATTAAAATCGTCGAGTAAACAAATTTTCCTAATCTTTCTGTTCAAGCGCCATCTAC” is 0.286; for “GATGATTGTTCTCCCAGCTGATGAATTCAAGCACTCGAGTAAACAAATTTTCCTAATCTTTCTGTTCAAGCGCCATCTAC” it is 0.542; for “GATGATTGTTCTCCCAGCTGATGAATTTTATAGGTCGAGTAAACAAATTTTCCTAATCTTTCTGTTCAAGCGCCATCTAC” it is 0.391.
In the case of “GATGATTGTTCTCCCAGCTGATGAATTATCATCGTCGAGTAAACAAATTTTCCTAATCTTTCTGTTCAAGCGCCATCTAC”, the binding signal (RPM ratio (pull-down/input)) was found to be 0.418.
The figure for “GATGATTGTTCTCCCAGCTGATGAATTTTTTAACTCGAGTAAACAAATTTTCCTAATCTTTCTGTTCAAGCGCCATCTAC” is 0.215.
Turning to “GATGATTGTTCTCCCAGCTGATGAATTCGGGCGTTCGAGTAAACAAATTTTCCTAATCTTTCTGTTCAAGCGCCATCTAC”, the binding signal (RPM ratio (pull-down/input)) worked out at 0.948.
In the case of “GATGATTGTTCTCCCAGCTGATGAATTCATCTGTTCGAGTAAACAAATTTTCCTAATCTTTCTGTTCAAGCGCCATCTAC” it was 0.475; in that of “GATGATTGTTCTCCCAGCTGATGAATTCACATGATCGAGTAAACAAATTTTCCTAATCTTTCTGTTCAAGCGCCATCTAC”, 0.312.
As to “GATGATTGTTCTCCCAGCTGATGAATTGGGGAGTTCGAGTAAACAAATTTTCCTAATCTTTCTGTTCAAGCGCCATCTAC”, the binding signal (RPM ratio (pull-down/input)) was determined as 0.363.
For “GATGATTGTTCTCCCAGCTGATGAATTTGAGAGGTCGAGTAAACAAATTTTCCTAATCTTTCTGTTCAAGCGCCATCTAC”, the binding signal (RPM ratio (pull-down/input)) was found to be 0.301.
In the case of “GATGATTGTTCTCCCAGCTGATGAATTGCGCTCGTCGAGTAAACAAATTTTCCTAATCTTTCTGTTCAAGCGCCATCTAC” it was 1.35; in that of “GATGATTGTTCTCCCAGCTGATGAATTCTGCCTGTCGAGTAAACAAATTTTCCTAATCTTTCTGTTCAAGCGCCATCTAC”, 5.17.
In the case of “GATGATTGTTCTCCCAGCTGATGAATTAACCATCTCGAGTAAACAAATTTTCCTAATCTTTCTGTTCAAGCGCCATCTAC” it was 0.336.
The figure for “GATGATTGTTCTCCCAGCTGATGAATTGAGGTCTTCGAGTAAACAAATTTTCCTAATCTTTCTGTTCAAGCGCCATCTAC” is 0.468; for “GATGATTGTTCTCCCAGCTGATGAATTCACCGGTTCGAGTAAACAAATTTTCCTAATCTTTCTGTTCAAGCGCCATCTAC” it is 0.264.
“GATGATTGTTCTCCCAGCTGATGAATTGTGGTCCTCGAGTAAACAAATTTTCCTAATCTTTCTGTTCAAGCGCCATCTAC”: the binding signal (RPM ratio (pull-down/input)) came out at 1.06.
On to “GATGATTGTTCTCCCAGCTGATGAATTTCTCGGGTCGAGTAAACAAATTTTCCTAATCTTTCTGTTCAAGCGCCATCTAC”, for which the binding signal (RPM ratio (pull-down/input)) stood at 0.193.
In the case of “GATGATTGTTCTCCCAGCTGATGAATTAATTCATTCGAGTAAACAAATTTTCCTAATCTTTCTGTTCAAGCGCCATCTAC” it was 0.344.
In the case of “GATGATTGTTCTCCCAGCTGATGAATTCATACATTCGAGTAAACAAATTTTCCTAATCTTTCTGTTCAAGCGCCATCTAC” it was 0.538; in that of “GATGATTGTTCTCCCAGCTGATGAATTATAAGTCTCGAGTAAACAAATTTTCCTAATCTTTCTGTTCAAGCGCCATCTAC”, 0.422; in that of “GATGATTGTTCTCCCAGCTGATGAATTCGGGATTTCGAGTAAACAAATTTTCCTAATCTTTCTGTTCAAGCGCCATCTAC”, 0.323.
The figure for “GATGATTGTTCTCCCAGCTGATGAATTTCTTCATTCGAGTAAACAAATTTTCCTAATCTTTCTGTTCAAGCGCCATCTAC” is 0.246.
Take “GATGATTGTTCTCCCAGCTGATGAATTGACGGTGTCGAGTAAACAAATTTTCCTAATCTTTCTGTTCAAGCGCCATCTAC”: the binding signal (RPM ratio (pull-down/input)) is 0.57.
With “GATGATTGTTCTCCCAGCTGATGAATTCATCCGGTCGAGTAAACAAATTTTCCTAATCTTTCTGTTCAAGCGCCATCTAC”, the binding signal (RPM ratio (pull-down/input)) is 0.268.
In the case of “GATGATTGTTCTCCCAGCTGATGAATTTGGCATTTCGAGTAAACAAATTTTCCTAATCTTTCTGTTCAAGCGCCATCTAC” it was 6.16; in that of “GATGATTGTTCTCCCAGCTGATGAATTTTCACTATCGAGTAAACAAATTTTCCTAATCTTTCTGTTCAAGCGCCATCTAC”, 0.375.
